Hit rate of the full screen: of about 48,000 compounds, about 550 (1.1%) were called active. About 4% were inconclusive and are not listed. No stated cut-off is given here; in the data, active means potency below about 15 µM; inconclusive means mostly about 16 µM to 33 µM; inactive means weaker than that. The list shows a part of the results.
target: Lysosomal acid glucosylceramidase (Homo sapiens) (UniProt P04062); assay: Glucocerebrosidase; details: purified enzyme, resorufin glucoside fluorescence (screen aimed at inhibitors), 20 min;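 further: the screen sought inhibitors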
In short: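 Compounds titrated against 0.2 nM normal enzyme, 30 uM resorufin beta-D-glucopyranoside substrate, citrate/phosphate buffer with taurocholate and tween-20, pH 5.9. Reaction ran 20 min at room temperature; fluorescence (Ex 548/Em 600) gave AC50.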
Potency means the concentration at half of the fitted maximal effect.

UniProt P04062, sequence (P04062 whole entry, looked up): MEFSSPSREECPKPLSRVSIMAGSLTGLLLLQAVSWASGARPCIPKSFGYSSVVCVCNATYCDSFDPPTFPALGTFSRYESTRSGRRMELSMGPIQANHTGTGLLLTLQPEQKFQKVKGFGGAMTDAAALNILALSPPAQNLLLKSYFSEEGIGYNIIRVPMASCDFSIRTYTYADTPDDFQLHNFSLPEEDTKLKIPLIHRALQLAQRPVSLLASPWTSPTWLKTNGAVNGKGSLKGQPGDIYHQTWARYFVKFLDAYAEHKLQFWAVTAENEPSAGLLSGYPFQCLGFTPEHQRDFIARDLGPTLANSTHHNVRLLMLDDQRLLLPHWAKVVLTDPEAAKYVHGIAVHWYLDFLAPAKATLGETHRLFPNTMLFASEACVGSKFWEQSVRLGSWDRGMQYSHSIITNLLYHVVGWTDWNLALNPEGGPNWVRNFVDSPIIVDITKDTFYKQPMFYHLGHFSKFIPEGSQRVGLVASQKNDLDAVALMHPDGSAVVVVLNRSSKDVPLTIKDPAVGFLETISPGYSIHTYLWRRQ

Potency, inactive:
O=C(c1ccncc1)N(Cc1ccccc1)Cc1nc2ccccc2c(=O)[nH]1 > 76.9 µM
COc1ccc(N2CCN(c3oc(-c4ccccc4OC)nc3C#N)CC2)cc1 > 76.9 µM
CCN(C(=O)CN1CCN(c2ccccc2OC)CC1)c1c(N)n(Cc2ccccc2)c(=O)[nH]c1=O > 76.9 µM
CC(=O)NCC(=O)OC(C)C(=O)Nc1ccc(C(C)=O)cc1 (stereo unspecified) > 76.9 µM
COCc1c(C(=O)OCC(=O)N2c3ccccc3NC(=O)C2(C)C)oc2ccccc12 > 76.9 µM
O=C(NCCCNC(=O)C(F)(F)C(F)F)C(F)(F)C(F)F > 76.9 µM
Cc1cc(C)c(OCC(=O)Nc2nnn(C)n2)c(Br)c1 > 76.9 µM
COc1ccc(NC(=O)N2CCCC2C(=O)Nc2ccc(C)cc2)cc1 (stereo unspecified) > 76.9 µM
Brc1ccc(-c2nnc3sc(CN4CCc5ccccc5C4)cn23)cc1 > 76.9 µM
C/C(=N\O)C(=O)NCC1CCNCC1 > 76.9 µM
Cn1cccc1C(=O)Nc1nccs1 > 76.9 µM
CCOc1ccc(C(C)=O)cc1Cn1nc(C(=O)O)c2ccccc2c1=O > 76.9 µM
COC(=O)c1ccc(NS(=O)(=O)c2ccc(OC)cc2)cc1 > 76.9 µM
CCC1Oc2ccccc2N(CC(=O)NCCCN2CCC(C)CC2)C1=O (stereo unspecified) > 76.9 µM
COC(=O)c1nnn(-c2nonc2N)c1CSc1ccc(Cl)cc1 > 76.9 µM
CCn1cc(Br)c(C(=O)N(C)Cc2ccccc2)n1 > 76.9 µM
COc1ccc(-n2c(C)cc(C(=O)Cn3nnc4ccccc4c3=O)c2C)cc1 > 76.9 µM
CC1(C)Cc2cccc(OCC(=O)N3CCN(S(=O)(=O)c4ccc(F)cc4)CC3)c2O1 > 76.9 µM
COc1ccc2ccc(Oc3ncccn3)cc2c1 > 76.9 µM
CC1(C)Oc2ccc(C(=O)N3CCCC3)cc2N(CC(=O)NCc2ccccc2)C1=O > 76.9 µM
CCOC(=O)c1cnn(-c2ccccn2)c1N > 76.9 µM
CCOc1ccc(CCNC(=O)C2CCN(c3nnc(-n4cccc4)s3)CC2)cc1OCC > 76.9 µM
Cc1nn(-c2ccccc2)c2sc(C(=O)O)cc12 > 76.9 µM
O=C(CCc1nc2ccccc2c(=O)[nH]1)OCC(=O)N1CCN(S(=O)(=O)c2ccccc2)CC1 > 76.9 µM
Cc1cc(C)c2c(n1)nn1c(NCCCn3ccnc3)cc(C)nc21 > 76.9 µM
O=C(COc1ccc(S(=O)(=O)N2CCOCC2)cc1)Nc1ccc(Cl)c(C(F)(F)F)c1 > 76.9 µM
CC(C)CC(=O)N=C1SC2CS(=O)(=O)CC2N1CCc1ccccc1 (stereo unspecified) > 76.9 µM
CC(C)CN(C(=O)COC(=O)C12CC3CC(CC(O)(C3)C1)C2)C1CCS(=O)(=O)C1 (stereo unspecified) > 76.9 µM
CC(=O)c1c(NCCc2ccccc2)cc(C)oc1=O > 76.9 µM
CCCCCCc1nc2c(=O)[nH]c3ccccc3c2o1 > 76.9 µM
CC(=O)c1cccc(NC(=O)c2ccc(NS(C)(=O)=O)cc2)c1 > 76.9 µM
O=C(NCCCN1CCCC1=O)Nc1ccc(Cl)cc1 > 76.9 µM
CC1Cc2ccccc2N1C(=O)CSc1nnnn1-c1ccc2c(c1)OCCO2 (stereo unspecified) > 76.9 µM
CC(=O)N(Cc1cccs1)C1CCOC(C)(C)C1 (stereo unspecified) > 76.9 µM
CCOC(=O)c1ccc(N2C(=O)c3n[nH]c(C)c3C2c2ccc(OC)cc2OC)cc1 (stereo unspecified) > 76.9 µM
CCN(CC)CC(=O)Nc1c(C)cc(C(C)(C)C)cc1C > 76.9 µM
CCOC(=O)c1ccc(NC(=O)CCNS(=O)(=O)c2ccc3c(c2)oc(=O)n3C)cc1 > 76.9 µM
COc1cccc(-n2c(SC)nnc2-c2cnccn2)c1 > 76.9 µM
CSc1n[nH]c(NCc2ccccc2)n1 > 76.9 µM
Cc1cccc(N2CCN(C(=O)c3ccc(NC(=O)C4CCCO4)cc3)CC2C)c1 (stereo unspecified) > 76.9 µM
CC(C)C(NC(=O)CC12CC3CC(CC(C3)C1)C2)C(=O)O (stereo unspecified) > 76.9 µM
CCOC(=O)N1CCN(C(=O)CN(C2CCCCC2)S(C)(=O)=O)CC1 > 76.9 µM
Cc1ccc(S(=O)(=O)CCC(=O)OCC(=O)Nc2ncc(Cl)cc2Cl)cc1 > 76.9 µM
Cc1cc(-n2c(C)cc(C(=O)CN3C(=O)NC4(CCCC4)C3=O)c2C)no1 > 76.9 µM
O=C(CSc1nnc(-c2ccccn2)n1Cc1ccco1)c1ccccc1 > 76.9 µM
CN(C(=O)C1CCCO1)c1nnc(-c2ccncc2)s1 (stereo unspecified) > 76.9 µM
COc1ccc(C2=CC(c3ccc(OC)c(OC)c3)n3nnnc3N2)c(OC)c1 (stereo unspecified) > 76.9 µM
CCOC(=O)N1CCN(S(=O)(=O)c2ccc(C(=O)Nc3nc4ccc(F)cc4s3)cc2)CC1 > 76.9 µM
COc1ccccc1NC(=O)c1cc(S(=O)(=O)N2CCC3(CC2)OCCO3)ccc1F > 76.9 µM
Cc1nc(NC(=O)C2CC3CCCC(C2)C3=O)sc1C (stereo unspecified) > 76.9 µM
CCCN1C2CCCC1CC(NC(=O)c1ccccc1OCC)C2 (stereo unspecified) > 76.9 µM
O=C1CC(C(=O)Nc2ccc(Br)cc2)C2(CCCC2)O1 (stereo unspecified) > 76.9 µM
COCCN(C(=O)CNC(=O)c1ccco1)C(C(=O)NC1CCCCC1)c1cccc(OC)c1 (stereo unspecified) > 76.9 µM
COc1ccc(NC(=O)CSc2nncs2)cc1OC > 76.9 µM
CCOc1ccc(CCNC(=O)C2CCCN(c3nnc(-n4cccc4)s3)C2)cc1OCC (stereo unspecified) > 76.9 µM
O=C(OCC(=O)N1CCN(C(=O)c2ccco2)CC1)c1ccccc1Cc1ccccc1 > 76.9 µM
